Assay results published in the supplement of paper PMC10037445.
Several values for one entry are separate records, joined by “and”; a condition that tells them apart may be missing. Identical values can stand only once. The full ranking holds about 2,900 compounds; the median of “NF-kB SEAP reporter activity, fold change vs agonist alone” is about 0.99, and the highest 2% start at about 2.6. This is one part of the list.

Key:
[1] = test system: RAW-Dual; experiment: NF-kB SEAP reporter activity, fold change vs agonist alone; higher = enhanced NF-kB activity; details: library stock concentration (final ~1000-fold dilution): 10 mM
Method in brief: (§1)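 RAW-Dual macrophages (50,000 cells/well in DMEM, 384-well plates) received 50 nL of library stock by pin tool, then a PRR agonist 1 h later, and were kept at 37 °C, 5% CO2. After 20 hours, supernatant was read for IRF by QuantiLuc luminescence and for NF-κB by QuantiBlue absorbance at 620 nm. Reporter activity is fold change over agonist-alone wells. Cytotoxic wells had IncuCyte confluency below 70% of agonist controls in both mask sets.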

[2] = test system: RAW-Dual; experiment: NF-kB SEAP reporter activity, fold change vs agonist alone; cytotoxicity flag (confluency mask): not cytotoxic; higher = enhanced NF-kB activity
Method in brief: as §1

[3] = test system: RAW-Dual; experiment: NF-kB SEAP reporter activity, fold change vs agonist alone; cytotoxicity flag (confluency mask): cytotoxic (confluency <70% of control); higher = enhanced NF-kB activity
Method in brief: as §1

[4] = cytotoxicity flag (confluency mask): not cytotoxic, agonist: Imiquimod (TLR7) […]
[5] = cytotoxicity flag (confluency mask): not cytotoxic, agonist: MPLA (TLR4) […]
[6] = agonist: ODN 1826 (TLR9) 0.5 ug/mL
[7] = agonist: Pam2CSK4 (TLR2/6) 0.1 ug/mL
[8] = agonist: Pam3CSK4 (TLR2/1) 0.1 ug/mL
[9] = cytotoxicity flag (confluency mask): cytotoxic (confluency <70% of control), agonist: Imiquimod (TLR7) […]
[10] = cytotoxicity flag (confluency mask): cytotoxic (confluency <70% of control), agonist: MPLA (TLR4) […]

CC(=N)NCc1cccc(CN)c1.Cl.Cl
NF-kB SEAP reporter activity [1, 4]: 1.08 | NF-kB SEAP reporter activity [1, 5]: 1.03

CC(=N)NCc1cccc(CN)c1.Cl.Cl (library stock concentration (final ~1000-fold dilution): 10 mM)
NF-kB SEAP reporter activity ([2]; agonist: LPS (TLR4) 0.1 ug/mL): 0.956 | NF-kB SEAP reporter activity [2, 6]: 1.03 | NF-kB SEAP reporter activity [2, 7]: 1.02 | NF-kB SEAP reporter activity [2, 8]: 0.859

CCN1C(=O)CNc2ncc(-c3ccc(-c4nc[nH]n4)nc3C)nc21 (library stock concentration (final ~1000-fold dilution): 10 mM)
NF-kB SEAP reporter activity ([2]; agonist: LPS (TLR4) 0.1 ug/mL): 1.88 | NF-kB SEAP reporter activity [2, 6]: 0.928 | NF-kB SEAP reporter activity [2, 7]: 0.753 | NF-kB SEAP reporter activity [2, 8]: 0.649

CCN1C(=O)CNc2ncc(-c3ccc(-c4nc[nH]n4)nc3C)nc21
NF-kB SEAP reporter activity [1, 4]: 0.935 | NF-kB SEAP reporter activity [1, 5]: 1.57

COc1ccc(CNC(=O)CCl)cc1OC (library stock concentration (final ~1000-fold dilution): 10 mM)
NF-kB SEAP reporter activity ([2]; agonist: LPS (TLR4) 0.1 ug/mL): 0.67 | NF-kB SEAP reporter activity [2, 6]: 0.674 | NF-kB SEAP reporter activity [2, 7]: 0.728 | NF-kB SEAP reporter activity [2, 8]: 0.679

COc1ccc(CNC(=O)CCl)cc1OC
NF-kB SEAP reporter activity [1, 4]: 1.02 | NF-kB SEAP reporter activity [1, 5]: 0.962

C=CC1CC1(NC(=O)C1CC2CN1C(=O)C(C(C)(C)C)NC(=O)OC1CC1CCCCCc1nc3ccc(OC)cc3nc1O2)C(=O)NS(=O)(=O)C1CC1 (stereo not given)
NF-kB SEAP reporter activity [1, 4]: 1.3 | NF-kB SEAP reporter activity [1, 5]: 1.22

C=CC1CC1(NC(=O)C1CC2CN1C(=O)C(C(C)(C)C)NC(=O)OC1CC1CCCCCc1nc3ccc(OC)cc3nc1O2)C(=O)NS(=O)(=O)C1CC1 (stereo not given) (library stock concentration (final ~1000-fold dilution): 10 mM)
NF-kB SEAP reporter activity ([2]; agonist: LPS (TLR4) 0.1 ug/mL): 1.3 | NF-kB SEAP reporter activity [2, 6]: 1.46 | NF-kB SEAP reporter activity [2, 7]: 0.913 | NF-kB SEAP reporter activity [2, 8]: 0.835

COc1cc2oc(=O)ccc2c(OC)c1CC(O)C(C)(C)O (stereo not given) (library stock concentration (final ~1000-fold dilution): 10 mM)
NF-kB SEAP reporter activity ([2]; agonist: LPS (TLR4) 0.1 ug/mL): 1.11 | NF-kB SEAP reporter activity [2, 6]: 0.972 | NF-kB SEAP reporter activity [2, 7]: 1.08 | NF-kB SEAP reporter activity [2, 8]: 1.38

COc1cc2oc(=O)ccc2c(OC)c1CC(O)C(C)(C)O (stereo not given)
NF-kB SEAP reporter activity [1, 4]: 0.936 | NF-kB SEAP reporter activity [1, 5]: 0.984

COc1cc(/C=C/C(=O)O)ccc1O (library stock concentration (final ~1000-fold dilution): 10 mM)
NF-kB SEAP reporter activity ([2]; agonist: LPS (TLR4) 0.1 ug/mL): 1.16 | NF-kB SEAP reporter activity [2, 6]: 1.12 | NF-kB SEAP reporter activity [2, 7]: 1.17 | NF-kB SEAP reporter activity [2, 8]: 1.04

COc1cc(/C=C/C(=O)O)ccc1O
NF-kB SEAP reporter activity [1, 4]: 0.903 | NF-kB SEAP reporter activity [1, 5]: 1.09

O=C(NC1CCOCC1)c1ccc(-c2cc(-c3c[nH]nc3-c3ccccn3)ccn2)cc1 (library stock concentration (final ~1000-fold dilution): 10 mM)
NF-kB SEAP reporter activity ([2]; agonist: LPS (TLR4) 0.1 ug/mL): 1.67 | NF-kB SEAP reporter activity [2, 6]: 1.25 | NF-kB SEAP reporter activity [2, 7]: 0.958 | NF-kB SEAP reporter activity [2, 8]: 1.14

O=C(NC1CCOCC1)c1ccc(-c2cc(-c3c[nH]nc3-c3ccccn3)ccn2)cc1
NF-kB SEAP reporter activity [1, 4]: 1.11 | NF-kB SEAP reporter activity [1, 5]: 1.55

CC(C)C(C(=O)O)N1C(=O)/C(=C/c2ccc(Br)cc2)SC1=S (stereo not given)
NF-kB SEAP reporter activity [1, 4]: 0.992 | NF-kB SEAP reporter activity [1, 5]: 1.01

CC(C)C(C(=O)O)N1C(=O)/C(=C/c2ccc(Br)cc2)SC1=S (stereo not given) (library stock concentration (final ~1000-fold dilution): 10 mM)
NF-kB SEAP reporter activity ([2]; agonist: LPS (TLR4) 0.1 ug/mL): 1.12 | NF-kB SEAP reporter activity [2, 6]: 0.953 | NF-kB SEAP reporter activity [2, 7]: 0.947 | NF-kB SEAP reporter activity [2, 8]: 1.05

NC(=O)c1ccc(-c2nc(-c3ccc4c(c3)OCO4)c(-c3ccccn3)[nH]2)cc1
NF-kB SEAP reporter activity [1, 4]: 1.13 | NF-kB SEAP reporter activity [1, 5]: 1.4

NC(=O)c1ccc(-c2nc(-c3ccc4c(c3)OCO4)c(-c3ccccn3)[nH]2)cc1 (library stock concentration (final ~1000-fold dilution): 10 mM)
NF-kB SEAP reporter activity ([2]; agonist: LPS (TLR4) 0.1 ug/mL): 2.2 | NF-kB SEAP reporter activity [2, 6]: 1.28 | NF-kB SEAP reporter activity [2, 7]: 0.845 | NF-kB SEAP reporter activity [2, 8]: 1.1

COCCCOc1cc(CC(CC(N)C(O)CC(C(=O)NCC(C)(C)C(N)=O)C(C)C)C(C)C)ccc1OC (stereo not given) (library stock concentration (final ~1000-fold dilution): 10 mM)
NF-kB SEAP reporter activity ([2]; agonist: LPS (TLR4) 0.1 ug/mL): 1.36 and 1.31 | NF-kB SEAP reporter activity [2, 6]: 1.57 and 0.983 | NF-kB SEAP reporter activity [2, 7]: 1.09 and 0.934 | NF-kB SEAP reporter activity [2, 8]: 1.04 and 1.06

CN(C)C/C=C/C(=O)Nc1cc2c(Nc3ccc(F)c(Cl)c3)ncnc2cc1OC1CCOC1 (stereo not given)
NF-kB SEAP reporter activity [1, 9]: 2.21 | NF-kB SEAP reporter activity [1, 10]: 0.295

CN(C)C/C=C/C(=O)Nc1cc2c(Nc3ccc(F)c(Cl)c3)ncnc2cc1OC1CCOC1 (stereo not given) (library stock concentration (final ~1000-fold dilution): 10 mM)
NF-kB SEAP reporter activity ([3]; agonist: LPS (TLR4) 0.1 ug/mL): 0.252 | NF-kB SEAP reporter activity [3, 6]: 0.201 | NF-kB SEAP reporter activity [3, 7]: 0.295 | NF-kB SEAP reporter activity [3, 8]: 0.227

COc1ccc(C2Sc3ccccc3N(CCN(C)C)C(=O)C2OC(C)=O)cc1.Cl (stereo not given)
NF-kB SEAP reporter activity [1, 4]: 1.17 | NF-kB SEAP reporter activity [1, 5]: 0.987

COc1ccc(C2Sc3ccccc3N(CCN(C)C)C(=O)C2OC(C)=O)cc1.Cl (stereo not given) (library stock concentration (final ~1000-fold dilution): 10 mM)
NF-kB SEAP reporter activity ([2]; agonist: LPS (TLR4) 0.1 ug/mL): 1.26 | NF-kB SEAP reporter activity [2, 6]: 0.845 | NF-kB SEAP reporter activity [2, 7]: 1.01 | NF-kB SEAP reporter activity [2, 8]: 1.14

Nc1nc(Cl)nc2c1ncn2C1OC(CO)C(O)C1F (stereo not given) (library stock concentration (final ~1000-fold dilution): 10 mM)
NF-kB SEAP reporter activity ([3]; agonist: LPS (TLR4) 0.1 ug/mL): 1.78 | NF-kB SEAP reporter activity [3, 6]: 2.41 | NF-kB SEAP reporter activity [3, 7]: 1.53 | NF-kB SEAP reporter activity [3, 8]: 1.59

Nc1nc(Cl)nc2c1ncn2C1OC(CO)C(O)C1F (stereo not given)
NF-kB SEAP reporter activity [1, 9]: 2.06 | NF-kB SEAP reporter activity [1, 10]: 1.74

CC(C)CC(NC(=O)C(CCc1ccccc1)NC(=O)CN1CCOCC1)C(=O)NC(Cc1ccccc1)C(=O)NC(CC(C)C)C(=O)C1(C)CO1 (stereo not given)
NF-kB SEAP reporter activity [1, 4]: 2.33 | NF-kB SEAP reporter activity [1, 5]: 0.832

CC(C)CC(NC(=O)C(CCc1ccccc1)NC(=O)CN1CCOCC1)C(=O)NC(Cc1ccccc1)C(=O)NC(CC(C)C)C(=O)C1(C)CO1 (stereo not given) (library stock concentration (final ~1000-fold dilution): 10 mM)
NF-kB SEAP reporter activity ([2]; agonist: LPS (TLR4) 0.1 ug/mL): 0.318 | NF-kB SEAP reporter activity [2, 6]: 1.18 | NF-kB SEAP reporter activity [2, 7]: 0.683 | NF-kB SEAP reporter activity [2, 8]: 0.456

CC(c1cc2ccccc2s1)N(O)C(N)=O (stereo not given)
NF-kB SEAP reporter activity [1, 4]: 0.908 | NF-kB SEAP reporter activity [1, 5]: 0.826

CC(c1cc2ccccc2s1)N(O)C(N)=O (stereo not given) (library stock concentration (final ~1000-fold dilution): 10 mM)
NF-kB SEAP reporter activity ([2]; agonist: LPS (TLR4) 0.1 ug/mL): 1.23 | NF-kB SEAP reporter activity [2, 6]: 1.01 | NF-kB SEAP reporter activity [2, 7]: 0.914 | NF-kB SEAP reporter activity [2, 8]: 0.933

O=C(/C=C/c1ccc(O)c(O)c1/C=C/c1ccc(O)c(O)c1)OC(Cc1ccc(O)c(O)c1)C(=O)O (stereo not given) (library stock concentration (final ~1000-fold dilution): 10 mM)
NF-kB SEAP reporter activity ([2]; agonist: LPS (TLR4) 0.1 ug/mL): 1.09 | NF-kB SEAP reporter activity [2, 6]: 0.836 | NF-kB SEAP reporter activity [2, 7]: 0.837 | NF-kB SEAP reporter activity [2, 8]: 0.289

O=C(/C=C/c1ccc(O)c(O)c1/C=C/c1ccc(O)c(O)c1)OC(Cc1ccc(O)c(O)c1)C(=O)O (stereo not given)
NF-kB SEAP reporter activity [1, 4]: 0.405 | NF-kB SEAP reporter activity [1, 5]: 0.891

CC1=C(C(=O)OC2CCCCC2)C(c2ccc([N+](=O)[O-])cc2)C2=C(CC(C)(C)CC2=O)N1 (stereo not given)
NF-kB SEAP reporter activity [1, 4]: 1.19 | NF-kB SEAP reporter activity [1, 5]: 0.918

CC1=C(C(=O)OC2CCCCC2)C(c2ccc([N+](=O)[O-])cc2)C2=C(CC(C)(C)CC2=O)N1 (stereo not given) (library stock concentration (final ~1000-fold dilution): 10 mM)
NF-kB SEAP reporter activity ([2]; agonist: LPS (TLR4) 0.1 ug/mL): 0.672 | NF-kB SEAP reporter activity [2, 6]: 0.674 | NF-kB SEAP reporter activity [2, 7]: 0.298 | NF-kB SEAP reporter activity [2, 8]: 0.335
